Molecular target: SLY (suilysin) (Streptococcus suis, UniProt Q55996)
Conditions: 100 ng/mL SLY; 0-32 μg/mL baicalein; 37 °C

Compound: O=c1cc(-c2ccccc2)oc2cc(O)c(O)c(O)c12 [Baicalein]
- hemolytic activity: hemolytic activity of purified SLY decreased significantly with elevated baicalein concentration

From publication PMC8199331, “Baicalein Ameliorates Streptococcus suis-Induced Infection In Vitro and In Vivo” (International Journal of Molecular Sciences, 2021)
